Out of some 420,000 compounds screened, about 64,000 (15%) were called active. The inconclusive results got no clear call from the source; some entries with a clear call stand among them for comparison. The call rests on the fitted dose curve; in most records, active means well fitted inhibition curve with a large enough effect; inconclusive means small, poorly fitted or top-dose-only effect; inactive means flat fitted curve, though single readings scatter. Potencies of inconclusive entries are left out as doubtful fits.
Experiment: qHTS for Inhibitors of human tyrosyl-DNA phosphodiesterase 1 (TDP1): qHTS in cells in absence of CPT; further: nearly all actives have a fitted effect of over 55% in size
Details: DT40 Tdp1-/- hTDP1 cells, no CPT, ATP luminescence, 48 h
In short: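 A cellular qHTS used chicken DT40 cells lacking endogenous Tdp1 but carrying stably transfected human TDP1. Compounds were applied without camptothecin, and cell growth kinetics were judged by ATP-dependent luminescence after ≥48 hr.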

[1] = activity change, negative = growth inhibition: at 46.2 µM (top of the series) unless noted
On the % scale 0 is the no-effect control and ±100 the full control effect; potency means the concentration at half of the fitted maximal effect; tags describe the fitted curve by direction and shape.

## COc1ccc(CC(=O)N2CCCC(CNC(=O)c3ccccc3Cl)C2)cc1 (configuration not stated)
[1]
  Potency: inconclusive [inhibitor, single point]

## CC(=O)Nc1ccc(S(=O)(=O)N2CCc3c(Cl)cccc3C2)cc1
[1]
  activity change, negative = growth inhibition: inconclusive: -33.4% [inhibitor]

## O=c1[nH]c(C2CCN(S(=O)(=O)/C=C/c3ccccc3)CC2)nc2c1nnn2Cc1ccccc1
[1]
  Potency: inconclusive [inhibitor, single point]

## Cc1ccc(CN(Cc2ccco2)c2cnc(S(C)(=O)=O)nc2C(=O)Nc2ccc(Br)cc2)o1
[1]
  Potency: inconclusive [inhibitor, partial curve, poor fit]

## CC(=O)Nc1cccc(-c2ccnc3c2CC(C)(C(=O)NCc2ccc(N(C)C)cc2)O3)c1 (configuration not stated)
[1]
  Potency: active: 2.91 µM

## CC(C)N(C(=O)Cn1c(SCC(=O)NCc2ccc3c(c2)OCO3)nc2ccccc21)C(C)C
[1]
  Potency: inconclusive [inhibitor, partial curve, poor fit]

## CN(C(=O)CSc1nc2ccc(Br)cc2c(=O)n1Cc1ccco1)C1CCS(=O)(=O)C1 (configuration not stated)
[1]
  Potency: inconclusive [inhibitor, single point]

## COc1ccc(N2CCN(C(=O)COC(=O)c3c(-c4ccccc4)noc3C)CC2)cc1
[1]
  Potency: inconclusive [inhibitor, single point]

## COC(=O)C1CCC(=S)N1C(=O)c1ccccc1 (configuration not stated)
[1]
  Potency: inconclusive [inhibitor, single point]

## Cc1nc(N2C(=O)C(=O)/C(=C(/O)c3ccccc3)C2c2ccco2)sc1C (configuration not stated)
[1]
  Potency: inconclusive [inhibitor, single point]

## CCN1C(=S)SC(=O)C1=C1C=C(C)OC(C)=C1
[1]
  Potency: inconclusive [inhibitor, single point]

## O=C1CC(NCc2ccc(F)cc2)C(=O)N1c1ccccc1 (configuration not stated)
[1]
  Potency: inactive

## COCCCn1c(=O)c2ccccc2n(Cc2cccc(C)c2)c1=O
[1]
  Potency: inactive

## CC(=O)c1cn(C(=O)c2ccc(Cl)cc2)c2ccccc12
[1]
  Potency: inactive

## O=C(NC1CC1)c1cccc(NC(=O)C2CC2)c1
[1]
  Potency: inactive

## COc1cc(C2/C(=C(/O)c3ccc(F)cc3)C(=O)C(=O)N2CCCC(=O)O)ccc1O (configuration not stated)
[1]
  Potency: inactive

## COc1cccc(-c2nnc(NC(=O)c3ccc(S(=O)(=O)N4CCOCC4)cc3)o2)c1
[1]
  Potency: active: 11.6 µM

## c1nc(N2CCNCC2)c2cc(-c3ccc4c(c3)OCO4)ccc2n1
[1]
  Potency: inconclusive [inhibitor, single point]

## O=C(NN=Cc1ccccc1Cl)c1ccc([N+](=O)[O-])cc1
[1]
  Potency: inactive

## Cn1nc(-c2ccc(Cl)cc2)c2cc(C(=O)NCC3CCCO3)sc21 (configuration not stated)
[1]
  Potency: inconclusive [inhibitor, single point]

## CC(CCc1ccccc1)NC(=O)CCN1N=C(c2ccccc2)CCC1=O (configuration not stated)
[1]
  Potency: inactive

## O=C(c1ccccc1)N1CCc2cc(CNS(=O)(=O)c3ccccc3Cl)ccc21
[1]
  Potency: active: 0.92 µM

## Cc1cc(C(=O)NCC(C)C)c2ccccc2n1
[1]
  Potency: inactive

## Cc1cccc(S(=O)C(c2ccccc2)c2ccccc2)c1 (configuration not stated)
[1]
  Potency: inconclusive [inhibitor, single point]

## CCS(=O)(=O)Nc1ccc(C2=NN(C(=O)c3ccco3)C(c3cccc(F)c3)C2)cc1 (configuration not stated)
[1]
  Potency: inconclusive [inhibitor, single point]

## Cc1ccc(-n2sc3ccccc3c2=O)cc1S(=O)(=O)N1CCCCC1
[1]
  Potency: active: 2.91 µM

## NC1=NC2(CCN(Cc3ccccc3)CC2)n2c(nc3ccccc32)N1
[1]
  Potency: inconclusive [inhibitor, single point]

## Cc1cccc(N(CC(=O)NC(C)c2ccccc2)S(=O)(=O)c2ccccc2)c1C (configuration not stated)
[1]
  Potency: inconclusive [inhibitor, single point]

## Oc1ccccc1/C=N/n1c(-c2cccs2)n[nH]c1=S
[1]
  Potency: inactive

## CCN(CC)CCN(Cc1cc2cc3c(cc2[nH]c1=O)OCCO3)C(=S)NCCOC
[1]
  activity change, negative = growth inhibition: inconclusive: -31.5% [inhibitor]

## NS(=O)(=O)c1ccc(CNC(=O)c2ccc(Br)o2)cc1
[1]
  Potency: inactive

## CC(C)(C)N(CC(=O)NC1CCCCC1)C(=O)CS(=O)CC(=O)Nc1ccc(F)cc1 (configuration not stated)
[1]
  Potency: inactive

## COc1ccc(/C=N\NC(=O)c2ccc([N+](=O)[O-])cc2)cc1COc1c(F)c(F)cc(F)c1F
[1]
  Potency: inconclusive [inhibitor, single point]

## CC(C)C[C@H](NC(=O)c1nc[nH]c1C(=O)NC1CCN(C(=O)OC(C)(C)C)CC1)C(=O)OCc1ccccc1
[1]
  Potency: inconclusive [inhibitor, single point]

## COc1ccc(OC)c(Nc2nc(-c3ccc(O)c(O)c3)cs2)c1
[1]
  Potency: active: 1.16 µM

## FC(F)(F)c1ccccc1-c1ccc2ncnc(NCc3cccs3)c2c1
[1]
  Potency: inconclusive [inhibitor, single point]

## CCCCCCCCCCCCOCCCN
[1]
  Potency: inconclusive [inhibitor, partial curve, poor fit]

## COc1cc(/C=C/C(=O)OCC(=O)N(C)Cc2ccccc2)cc(OC)c1OC
[1]
  Potency: inconclusive [inhibitor, single point]

## Brc1ccc(-c2cn3cc(Cc4ccccc4)sc3n2)cc1
[1]
  Potency: inactive

## O=C1NC(NS(=O)(=O)c2ccccc2)(C(F)(F)F)C(=O)N1CCc1ccccc1 (configuration not stated)
[1]
  activity change, negative = growth inhibition: inconclusive: -24.5% [inhibitor]
At 46.2 µM (top of the series)
  activity change, negative = growth inhibition: inactive: -2.72%

## COc1ccccc1OCCCC(=O)Nc1nccs1
[1]
  Potency: inactive

## COc1cccc(NC(=O)CSc2nnc(Cc3cccn3C)n2-c2ccc(F)cc2)c1
[1]
  Potency: inconclusive [inhibitor, single point]

## CCCN(CC(=O)Nc1ccccc1C)C(=O)c1cc(=O)[nH]c2ccccc12
[1]
  Potency: inactive

## CCN(CC)S(=O)(=O)c1cccc(NC(=O)/C=C/c2ccc([N+](=O)[O-])cc2)c1
[1]
  Potency: inconclusive [inhibitor, single point]

## Cc1cnc(NS(=O)(=O)c2ccc(Cl)cc2)c(Br)c1
[1]
  Potency: inactive

## O=C(C[N+]1(CC#Cc2ccccc2)CCOCC1)c1ccc(Cl)cc1
[1]
  Potency: inconclusive [inhibitor, single point]
